Measured values reported in paper PMC3087822 (Nature structural & molecular biology, 2011).

Target: full-length rat Munc18-1 (rat)
Experiment: SEC

B1: syntaxin-1A([…]) (C145S, S249C), rhodamine-labeled (domain or fragment)
chain: not shown
- binding result: binds

B2: syntaxin-1A([…]) (R210E, C145S, S249C), rhodamine-labeled (domain or fragment)
chain: not shown
- binding result: binds
